Test results reported in the RNAGym collection of RNA variant scans (doi:10.1093/nar/gkz1192).
Read counts are not given, so values of variants with three or more changes are uncertain.

B1: CPEB3 Ribozyme (parent)
chain: UAACAGGGGGCCACAGCAGAAGCGUUCACGUCGCAGCCCCUGUCAGAUUCUGGUGAAUCUGCGAAUUCUGCUGUAUAUCUC

Variants of: B1
Test: self-cleavage, relative activity (ratio to wild type); higher = more cleavage; in vitro, sequencing
In short: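 Relative activity compares each variant's cleaved/total read fraction with that of the unmutated ribozyme. To get these fractions, barcoded CPEB3 ribozyme libraries from rounds of error-prone PCR were transcribed with T7 RNA polymerase for 5 hours at 37°C and then given 15 min of DNase I treatment before EDTA was added. The RNAs were reverse transcribed with template switching and sequenced on Illumina, and DNA sequencing linked barcodes to variants. A minimum of 5 reads applied, and three batches were averaged.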

Variant | self-cleavage
UAACAGGGGGCCACAGCAGAAGCGUUCGCGUCGCAGCCCCUAUCAGAUUCUGGUGAAUCUGCGAAUUCCGCUGUAUAUCUC | 0.15
UAACAGGGGGCCACAGCAGAAGCGUUCGCGUCGCAGCCCCCGUCAGAUUCUGGUGAAUCUGCGAACACUGCUGUAUAUCUC | 0.13
UAACAGGGGGCCACAGCAGAAGCGUUCGCGACGCAGCCCCUGUCAGAUUCUGGUGAAUCUGCGAAUUCUGCUGUAUGUCUC | 0.27
UAACAGGGGGCCACAGCAGAAGCGUUCGCGACGCAGCCACUGUCAGAUUCUGGUGAGUCUGCGAAUUCUGCUGUAUAUCUC | 0.11
UAACAGGGGGCCACAGCAGAAGCGUUCGCAUCGCUGCCCCUGUCAGAUCCUGGUGAAUCUGCGAAUCCUGCUGUAUAUCUC | 0.07
UAACAGGGGGCCACAGCAGAAGCGUUCGCGUCGCAGCCCCAGUCGGAUUCUGGUGAAUCUGAGAAUCCUGCUGUAUAUCUC | 0.05
UAACAGGGGGCCACAGCAGAAGCGUUCGCGUCGCACCCCCUGACAGAUUCUGGUGAAUCUGCGGAUUCUGCUGCAUAUCUC | 0.07
UAACAGGGGGCCACAGCAGAAGCGUUCGCGACGCAGCCCCUGUCAGAUUCUGGUGAAUCUGCGGAUUCUGCUGUAUACCUC | 0.26
UAACAGGGGGCCACAGCAGAAGCGUUCGCGUCGCAGCCGCUGUCAGAUUCAGGUGAAUCUGCGAACUCUACUGUAUAUCUC | 0.32
UAACAGGGGGCCACAGCAGAAGCGUUCGCGACGGAGCCCCUGUCAGAUUCUGGUGUAUCUGCGAAUCCUGCUGUAUAUCUC | 0.06
UAACAGGGGGCCACAGCAGAAGCGUUCGCGUCGCAGCCCCCGUCAGAUUCUGGUGAAUCUGCGAAUUCUGCUGUAUGUCUC | 0.56
UAACAGGGGGCCACAGCAGAAGCGUUCGCGUCGCAGCCCCUGCCAGAUUCUGGUGAAUCUGCGAACUCCGCUGUAUAUCUC | 0.16
UAACAGGGGGCCACAGCAGAAGCGUUCGCGUCCCGGCCCCUGUCAGAUUCUGGUGAAUCUGCGAACUCUGCUGUAUAUCUC | 0.15
UAACAGGGGGCCACAGCAGAAGCGUUCGCGUCGCAGCCCCUGUUAGUUUCUGGUGAAUCUGCGAAUUCUGCCGUAUAUCUC | 0.18
UAACAGGGGGCCACAGCAGAAGCGUUCGCGUCGCAGCCCCUGUCAGAUUCUGGUGAAUCUGCAAAUUCAGCUGUAUGUCAC | 0.21
UAACAGGGGGCCACAGCAGAAGCGUUCGCAUCGCAGCCCCUGUCAGAUUCUGGUGAAUCUGCGAAUUUUGCUGUAUAUCUC | 0.13
UAACAGGGGGCCACAGCAGAAGCGUUCGCGUCGCACCCCCUGUCAGAUUCUUGUGAGUCUGCGACUUCUGCUGUAUAUCUC | 0.12

Variant | self-cleavage
UAACAGGGGGCCACAGCAGAAGCGUUCGCGUCGCAGCCCCUGUCAGAUUCUGGUUAAUCUGCGAAUUCUGCCGUAUAUCUC | 0.64
UAACAGGGGGCCACAGCAGAAGCGUUCGCGUCGCAGCCCCCGCCAGAUUCAGGUGUACCUGCGAAUACUGCUGUAUAUCUC | 0.07
UAACAGGGGGCCACAGCAGAAGCGUUCGCGUCGCAGCCCCCGUCAGAUUCUGGUGAACCUGCGAACUCUGCUGUAUAUCUC | 0.36
UAACAGGGGGCCACAGCAGAAGCGUUCGCGUCGCAGCCCCAGUCUGAUUCUGGUGAAUCCGCGAAUCCUGCUGUAUAUCUC | 0.11
UAACAGGGGGCCACAGCAGAAGCGUUCGCAUCGCAGCCCCUGUCAGAUUCUGGUGAAUCUGCGAUUUCUGCUGUAUAUCUC | 0.18
UAACAGGGGGCCACAGCAGAAGCGUUCGCGUCGCAGCCCCUGUAUGAUUCUGGUGAAUCUGCGUAUUCAGCUGUAUAUCUC | 0.18
UAACAGGGGGCCACAGCAGAAGCGUUCGCGUCGCAGCCCCGGUCAAAUCCUGGUGAAUCUGCGGAUUCUGCUGUCUAUCUC | 0.29
UAACAGGGGGCCACAGCAGAAGCGUUCGCGCCGCAGCCCCUGUCGGAUUCUGGUGAAUCUGCGAAUUCUGCUGUUUAUCCC | 0.27
UAACAGGGGGCCACAGCAGAAGCGUUCGCGCCACAGCCCCUGCCAGAUUCUGGUGAAUCUGCGAAUUCUGCUGUAUAUCUC | 0.31
UAACAGGGGGCCACAGCAGAAGCGUUCGCGUCGCAGCCCCUGGCAGAUUCUGCUGAAUCUGCGAAUUCUGCCGUAUAUCUC | 0.33
UAACAGGGGGCCACAGCAGAAGCGUUCGCGUCGCAGCCCCUGCCAGAUUCUGGUGAAUCUGCGAAUCCUGCUGUAUAUCCC | 0.1
UAACAGGGGGCCACAGCAGAAGCGUUCGCGUCGCAGCCCCAGUCGGAUUCUGGUGAAUCUGCGAAUUCUGCUGUAUAUCUC | 0.15
UAACAGGGGGCCACAGCAGAAGCGUUCGCGCCGCAGCCCCUGUCAGAUUCUGGUGAAUCUGCGAAUACUGCUGUAUAGCUC | 0.08
UAACAGGGGGCCACAGCAGAAGCGUUCGCGUCGCAGCCCCAGUCAGAUCCUGGUGAAUCUGCGAAUUCAGCUGUAUAUCUC | 0.05
UAACAGGGGGCCACAGCAGAAGCGUUCGCGUCGCAGCCACUGCCUGAUUCUGGUGGAUCUGCGAAUUCUGCUGUAUAUCUC | 0.47
UAACAGGGGGCCACAGCAGAAGCGUUCGCGUCGCAGCCCCUUACAGACUCUGGUGAAUCUGCGAAUUCUGCUGUAUAUCUC | 0.21
UAACAGGGGGCCACAGCAGAAGCGUUCGCGUCGCAGCCCCUGCCAGAUUCUGGUGCAUCUGCGAAUUCUGCUGUAUAUCUC | 0.4
